Results reported in PubChem BioAssay AID504333 (National Center for Advancing Translational Sciences (NCATS), 2011).
Among all 360,000 compounds or so, about 16,000 (4.4%) were called active. This list was built around the results that the source calls inconclusive (neither active nor inactive); the mix of calls is not that of the screen. The call rests on the fitted dose curve; in most records, active means well fitted inhibition curve with a large enough effect; inconclusive means small, poorly fitted or top-dose-only effect; inactive means no such curve, though single readings can be large or run the other way. Potencies beside an inconclusive call are fits to weak or partial responses and may not hold up.

Each molecule was assayed against Bromodomain adjacent to zinc finger domain protein 2B (Homo sapiens) (UniProt Q9UIF8) (assay: qHTS Assay for Inhibitors of BAZ2B). Conditions: AlphaScreen BAZ2B-H3K14Ac peptide displacement; activity change, negative = inhibition: at 114 µM (top of the series).
In short: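 In this displacement format the biotinylated H3(5-23) peptide acetylated at Lys14 serves as ligand at 50 nM, with BAZ2B at 50 nM in PBS pH 7.4 containing 0.01% Tween-20. Donor and acceptor beads are 10 ug/mL final.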
Further: nearly all actives have a fitted effect of over 60% in size.
On the % scale 0 is the no-effect control and ±100 the full control effect; potency means the concentration at half of the fitted maximal effect; tags describe the fitted curve by direction and shape.

Sequence of UniProt Q9UIF8 (Q9UIF8 whole entry, looked up, the tested form may be a part): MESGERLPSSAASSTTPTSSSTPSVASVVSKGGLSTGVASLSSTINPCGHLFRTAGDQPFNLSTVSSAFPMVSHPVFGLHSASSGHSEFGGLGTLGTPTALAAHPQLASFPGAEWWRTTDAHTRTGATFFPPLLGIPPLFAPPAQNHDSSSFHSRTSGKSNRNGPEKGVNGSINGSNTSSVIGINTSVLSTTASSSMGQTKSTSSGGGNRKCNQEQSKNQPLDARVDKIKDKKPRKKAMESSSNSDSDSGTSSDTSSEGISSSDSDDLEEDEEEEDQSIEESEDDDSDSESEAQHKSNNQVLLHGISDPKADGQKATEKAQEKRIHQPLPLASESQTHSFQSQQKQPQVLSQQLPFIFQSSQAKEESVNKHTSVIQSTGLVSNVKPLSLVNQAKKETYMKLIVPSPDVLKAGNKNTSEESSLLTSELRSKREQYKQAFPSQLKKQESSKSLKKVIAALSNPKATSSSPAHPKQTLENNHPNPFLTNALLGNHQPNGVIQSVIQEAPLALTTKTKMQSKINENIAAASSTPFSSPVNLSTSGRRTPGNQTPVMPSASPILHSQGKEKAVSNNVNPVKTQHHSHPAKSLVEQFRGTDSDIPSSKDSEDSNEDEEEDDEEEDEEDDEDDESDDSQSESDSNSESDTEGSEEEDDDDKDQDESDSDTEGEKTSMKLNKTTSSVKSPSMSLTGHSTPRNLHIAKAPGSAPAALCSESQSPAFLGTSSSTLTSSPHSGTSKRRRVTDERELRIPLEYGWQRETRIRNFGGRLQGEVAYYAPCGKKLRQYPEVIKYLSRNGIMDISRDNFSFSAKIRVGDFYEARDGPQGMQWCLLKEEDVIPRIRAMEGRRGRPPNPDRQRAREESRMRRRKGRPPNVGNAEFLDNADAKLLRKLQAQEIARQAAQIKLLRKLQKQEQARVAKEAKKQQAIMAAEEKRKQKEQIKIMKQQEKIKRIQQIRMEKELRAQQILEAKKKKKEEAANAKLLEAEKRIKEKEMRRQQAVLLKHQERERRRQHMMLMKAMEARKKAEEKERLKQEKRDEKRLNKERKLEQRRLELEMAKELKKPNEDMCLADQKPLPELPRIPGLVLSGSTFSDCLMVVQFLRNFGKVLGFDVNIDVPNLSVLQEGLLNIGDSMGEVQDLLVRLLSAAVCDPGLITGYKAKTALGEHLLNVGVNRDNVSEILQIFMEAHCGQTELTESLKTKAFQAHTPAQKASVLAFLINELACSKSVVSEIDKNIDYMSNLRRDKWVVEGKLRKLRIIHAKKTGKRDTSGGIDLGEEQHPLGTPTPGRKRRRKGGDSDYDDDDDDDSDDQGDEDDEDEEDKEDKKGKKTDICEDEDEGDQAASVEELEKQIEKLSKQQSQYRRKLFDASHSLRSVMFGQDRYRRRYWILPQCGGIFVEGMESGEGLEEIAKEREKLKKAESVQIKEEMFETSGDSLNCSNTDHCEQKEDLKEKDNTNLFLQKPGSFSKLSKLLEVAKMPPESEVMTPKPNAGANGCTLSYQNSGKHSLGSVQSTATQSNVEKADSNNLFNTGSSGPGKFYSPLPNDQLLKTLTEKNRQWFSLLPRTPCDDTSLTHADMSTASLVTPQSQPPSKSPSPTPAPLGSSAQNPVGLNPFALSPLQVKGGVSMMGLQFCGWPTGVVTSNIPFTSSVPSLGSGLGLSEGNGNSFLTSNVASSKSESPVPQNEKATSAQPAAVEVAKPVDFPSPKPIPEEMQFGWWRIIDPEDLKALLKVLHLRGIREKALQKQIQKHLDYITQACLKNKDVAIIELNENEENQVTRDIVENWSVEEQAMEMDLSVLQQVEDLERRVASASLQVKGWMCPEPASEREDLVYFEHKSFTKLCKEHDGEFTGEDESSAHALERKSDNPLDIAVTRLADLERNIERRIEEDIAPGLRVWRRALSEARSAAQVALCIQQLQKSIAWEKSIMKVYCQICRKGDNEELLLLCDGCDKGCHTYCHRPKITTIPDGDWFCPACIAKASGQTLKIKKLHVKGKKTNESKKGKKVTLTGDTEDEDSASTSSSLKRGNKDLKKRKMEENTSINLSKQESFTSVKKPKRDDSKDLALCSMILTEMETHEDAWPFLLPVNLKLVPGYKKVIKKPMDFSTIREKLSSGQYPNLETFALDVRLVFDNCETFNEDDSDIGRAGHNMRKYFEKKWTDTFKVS

Row | SMILES | Potency | activity change, negative = inhibition
1 | Cc1ccc2c(c1)c1c3n2CCCNC3CCC1 (stereo not given) | inconclusive: 50.1 µM [inhibitor, partial curve] | –
2 | Cc1cc(C2=NNC(=NC3CC3)SC2)c(C)n1-c1ccccc1F | inconclusive: 50.1 µM [inhibitor, partial curve] | –
3 | Nc1c(-c2nc(-c3cccs3)no2)nnn1-c1cccc(Cl)c1 | – | inactive: 8.74%
4 | Cc1cc(C)n(-c2ccc(NC(=O)C3CCN(Cc4ccccn4)CC3)cc2)n1 | inconclusive: 70.8 µM [inhibitor, single point] | –
5 | COc1ccc(NC(=S)Nc2ccccc2)cn1 | – | inactive: 4.68%
6 | CC1=NN(c2ccccc2)C(=O)/C1=C/C=C/C=C/N(C)C | active: 12.6 µM | –
7 | COCCN(C(=O)COC(=O)Cc1coc2cc3c(cc12)CCC3)c1c(N)n(Cc2ccccc2)c(=O)[nH]c1=O | active: 50.1 µM | –
8 | c1ccc(-c2nnc(N3CCN(c4ccccn4)CC3)c3ccccc23)cc1 | inconclusive: 89.1 µM [inhibitor, single point] | –
9 | Cc1cc2ccccn2c1C(=O)c1cc([N+](=O)[O-])cc([N+](=O)[O-])c1 | active: 10 µM | –
10 | CCSc1nnc2c(n1)OC(CC)N(C(C)=O)c1ccccc1-2 (stereo not given) | – | inactive: 4.68%
11 | O=C(/C=C/c1ccc2ccccc2n1)N1CCN(c2ccccc2)CC1 | inconclusive: 50.1 µM [inhibitor, partial curve] | –
12 | CCOc1cc(/C=C2/C(=O)N(c3ccccc3)N=C2C)ccc1OC(=O)c1cccs1 | active: 50.1 µM | –
13 | Cc1nnsc1C(=O)N/N=C/c1ccc2ccccc2c1O | active: 1.41 µM | –
14 | Cc1cc(NC(=O)C(C)C)ncc1NC(=O)c1ccccn1 | active: 50.1 µM | –
15 | COc1ccc(C2N3CC4(C)CN2CC(C)(C3)C4)cc1OC (stereo not given) | inconclusive: 89.1 µM [inhibitor, single point] | –
16 | COc1ccc(N2CCN(Cc3nc4ccccc4n3C)CC2)cc1 | inconclusive: 44.7 µM [inhibitor, partial curve] | –
17 | N/C(=N\OC(=O)COc1ccc2ccccc2c1Br)c1ccccn1 | inconclusive: 89.1 µM [inhibitor, single point] | –
18 | CC(=O)C1=C(O)C=C(c2ccco2)CC1c1ccco1 (stereo not given) | active: 56.2 µM | –
19 | CCN(CC)CCCN1C(=O)c2oc3ccccc3c(=O)c2C1c1cccnc1 (stereo not given) | – | inactive: -1.26%
20 | Cc1cccc(C)c1Nc1c(-c2ccsc2)nc2ccc(Cl)cn12 | – | inactive: -31.1%
21 | COc1ccc(OC)c(CN2CCN(C(=O)c3cccc4ccccc34)CC2)c1 | active: 39.8 µM | –
22 | COc1ccccc1-n1c(SCC(=O)N2CCc3ccccc32)nc2c(c1=O)SCC2 | – | inactive: -4.22%
23 | Cc1cc(C)nc(NS(=O)(=O)c2ccc(NC(=O)COc3ccc(C(C)(C)C)cc3)cc2)n1 | – | inactive: -20.7%
24 | COC(=O)C1=C(Nc2ccccc2NC(=O)c2ccccc2C(=O)O)CSC1 | inconclusive: 89.1 µM [inhibitor, partial curve] | –
25 | CCOC(=O)C1CCCN(Cc2nc(N)nc(Nc3ccccc3)n2)C1 (stereo not given) | active: 35.5 µM | –
26 | COc1ccc(CNC(=O)c2ccc(-c3ccccc3)cc2)cc1OC | – | inactive: 3.82%
27 | O=C(Nc1ccc(S(=O)(=O)N2CCCCC2)cc1)C1CCN(C(=O)c2ccc(F)cc2)CC1 | inconclusive: 89.1 µM [inhibitor, single point] | –

Row | SMILES | Potency | activity change, negative = inhibition
28 | COC(=O)c1c(-c2ccc(Cl)cc2)noc1N1CCN(c2cccc(C(F)(F)F)c2)CC1 | – | inactive: 22.4%
29 | CC(C)C(=O)NC(c1ccccc1)c1cc([N+](=O)[O-])c2cccnc2c1O (stereo not given) | active: 5.62 µM | –
30 | CC(C)c1nc(SCC(=O)Nc2ccc([N+](=O)[O-])cc2Br)n[nH]1 | inconclusive: 50.1 µM [inhibitor, partial curve] | –
31 | CCOC(=O)C1=C(C)N=c2s/c(=C\c3ccc(OCC(=O)O)c(OC)c3)c(=O)n2C1c1ccc(OC)cc1 (stereo not given) | active: 79.4 µM | –
32 | CC(=O)N1CC[n+]2c(-c3ccc(Cl)cc3Cl)csc21 | inconclusive: 44.7 µM [inhibitor, partial curve] | –
33 | CCS(=O)(=O)c1nc(S(=O)(=O)c2ccc(Cl)cc2)c(NCc2ccccc2Cl)s1 | – | inactive: -2.37%
34 | Oc1ccc(/C=N/Nc2nc(N3CCCCCC3)nc(N3CCCCCC3)n2)c(O)c1 | inconclusive: 17.8 µM [inhibitor, full curve] | –
35 | O=C1CN(C(=O)c2ccc(Cl)c(S(=O)(=O)N3CCc4ccccc43)c2)c2ccccc2N1 | inconclusive: 89.1 µM [inhibitor, single point] | –
36 | CC(=O)Nc1cc(C(=O)NCc2ccco2)ccc1Sc1ccc(Cl)cc1 | inconclusive: 50.1 µM [inhibitor, partial curve] | –
37 | Cc1cccnc1NC1OC(=O)c2ccccc21 (stereo not given) | inconclusive: 89.1 µM [inhibitor, single point] | –
38 | Cc1ccc(/C=N/N2CCN(Cc3ccc(C)cc3)CC2)cc1 | active: 35.5 µM | –
39 | CCOc1ccc(CNC(=O)c2ccc(Sc3ccc(Cl)cc3)c(NC(C)=O)c2)cc1OC | inconclusive: 31.6 µM [inhibitor, single point] | –
40 | Cc1cc(C)c(OCCN(C)C)c(Cl)c1 | active: 50.1 µM | –
41 | COC(=O)C1=C(N)N(c2ccccc2C(F)(F)F)C2=C(C(=O)CCC2)C1c1ccc2c(c1)OCO2 (stereo not given) | inconclusive: 39.8 µM [inhibitor, full curve, poor fit] | –
42 | COc1ccc(/C=C2\SC(=S)N(CCCC(=O)Nc3cc(C)on3)C2=O)cc1OC | – | inactive: -1.91%
43 | Cn1c(-c2ccc(F)cc2)cnc1SCC(=O)N1CCCc2ccccc21 | active: 31.6 µM | –
44 | Cc1nc(C(=O)NCCO)cc2c1[nH]c1ccccc12 | – | inactive: -17.7%
45 | CCC(C(=O)Nc1cc(-c2nc3cccnc3s2)ccc1C)c1ccccc1 (stereo not given) | inconclusive: 28.2 µM [inhibitor, full curve] | –
46 | Cc1cc(C)[n+]2n1C(=O)C(c1ccccc1)=C2[O-] | inconclusive: 79.4 µM [inhibitor, partial curve] | –
47 | CC(C)N(C(=O)Nc1ccc2nsnc2c1)C(C)C | – | inactive: -1.17%
48 | Cc1ccc(S(=O)(=O)N(C)C)cc1NC(=O)C(C)OC(=O)C1CCCC1 (stereo not given) | – | inactive: 9.93%
49 | CCC(CC)C(=O)Nc1cccc(-c2nc3ccccc3s2)c1 | – | inactive: -30%
50 | N#CC1=C(N)N(c2ccccc2)C(c2cccc([N+](=O)[O-])c2)C1(C#N)C#N (stereo not given) | inconclusive: 31.6 µM [inhibitor, full curve] | –
51 | COc1ccc(C(=O)/C=C/c2ccsc2)cc1CSCC(=O)O | inconclusive: 79.4 µM [inhibitor, partial curve] | –
52 | C/C=C/c1ccc(OCC(O)CN2CCCCC2CC)c(OC)c1 (stereo not given) | active: 56.2 µM | –
53 | C=CCN(c1ccccc1C(=O)NCC(=O)O)S(=O)(=O)c1ccccc1C | – | inactive: -0.918%
54 | Nc1ccc(CCc2nc3ccccc3o2)cc1 | inconclusive: 79.4 µM [inhibitor, single point] | –

Row | SMILES | Potency | activity change, negative = inhibition
55 | C=Cc1c(C)c2cc3[nH]c(cc4nc(cc5nc(cc1[nH]2)C(C)=C5CCC(=O)O)C(CCC(=O)O)=C4C)c(C)c3C=C | active: 39.8 µM | –
56 | CCOCc1cc(CN2CCN(c3cccc(Cl)c3)CC2)c(O)c2ncccc12 | active: 12.6 µM | –
57 | CCOc1ccc(OCC)c(S(=O)(=O)NCCOC23CC4CC(CC(C4)C2)C3)c1 | – | inactive: 5.33%
58 | CCc1ccccc1NS(=O)(=O)c1ccc2c(c1)OCC(C(=O)N1CCCC1)O2 (stereo not given) | – | inactive: -13.6%
59 | CCCn1c(N)c(Sc2ccccc2[N+](=O)[O-])c(=O)n(CCC)c1=O | – | inactive: -1.17%
60 | Cc1nc(-c2ccccc2)cn(O)c1=O | active: 79.4 µM | –
61 | Cc1c(C2C(C#N)=C(N)N(c3ccccc3C#N)C3=C2C(=O)CCC3)cnn1C (stereo not given) | inconclusive: 89.1 µM [inhibitor, single point] | –
62 | COc1ccccc1CN1C(=O)c2ccccc2C1C(=O)NC1CCC(C)CC1 (stereo not given) | – | inactive: -18.5%
63 | NN/C(=C\[N+](=O)[O-])Nc1ccccc1 | active: 56.2 µM | –
64 | COc1cccc(C(=O)N2CCN(C3CCN(Cc4ccccc4)CC3)CC2)c1OC | active: 17.8 µM | –
65 | COc1ccc(Nc2ncnc3sccc23)cc1 | – | inactive: -7.05%
66 | COc1ccc(-c2nncnn2)cc1 | active: 44.7 µM | –
67 | COc1ccc2c(c1)OC13CCN(C)CC1C2C(C(=O)c1ccc(F)cc1)C(=O)N3 (stereo not given) | inconclusive: 79.4 µM [inhibitor, single point] | –
68 | O=[N+]([O-])c1ccc(CSc2ccccn2)cc1 | – | inactive: -11.4%
69 | COc1cc(S(C)=O)ccc1-c1nc2ncccc2[nH]1 (stereo not given) | – | inactive: 8.79%
70 | COc1ccc(NC(=O)CN(C)C(C)C(=O)N2CCCCC2)cc1 (stereo not given) | active: 22.4 µM | –
71 | CCOC(=O)Cn1c(=O)n(Cc2ccc(C)cc2)c(=O)c2cccnc21 | – | inactive: 7.12%
72 | Cc1csc(=O)n1CCC(=O)OCC(=O)Nc1ncc(Cl)cc1Cl | inconclusive: 89.1 µM [inhibitor, single point] | –
73 | CN1C(=O)CC(NNC(=O)c2ccccc2)C1=O (stereo not given) | – | inactive: -0.564%
74 | N#Cc1cc2cc3c(cc2nc1SCC(=O)N1CCOCC1)OCCO3 | – | inactive: -10.6%
75 | CCOC(=O)C1(CCOc2ccccc2)CCN(Cc2cc(OC)c(O)cc2Cl)CC1 | inconclusive: 79.4 µM [inhibitor, single point] | –
76 | Cc1[nH]c2ccccc2c1C(=O)NS(=O)(=O)Nc1ccc(Cl)cc1 | inconclusive: 89.1 µM [inhibitor, single point] | –
77 | COc1ccc(OC)c(CN2CCN(C(=O)c3ccc(F)cc3)CC2)c1 | inconclusive: 35.5 µM [inhibitor, full curve] | –
78 | O=C1/C(=C/c2ccco2)SC(=S)N1C1CCS(=O)(=O)C1 (stereo not given) | active: 50.1 µM | –
79 | Cc1cccc(-c2nn(-c3ccccc3)cc2C(=O)NCC(c2cccs2)N2CCOCC2)c1 (stereo not given) | inconclusive: 79.4 µM [inhibitor, single point] | –
80 | OCC1CCCN(Cc2ccc(-c3ccccc3)cc2)C1 (stereo not given) | inconclusive: 89.1 µM [inhibitor, single point] | –
